# Assay results as given in the supplement of paper PMC10369915.
# Some of the results follow. Rule as the data show it: active = 3.2 or more and inactive = the rest. The signal is at background level for most entries.
# B1: CNOT3_Y746 (peptide)
# chain: TFEYRYLEDRD
# B2: CLEC12A_Y242_K244Q_YF (peptide)
# chain: FFHCTYKQRMI
# B3: CHST6_Y362_Y358H (peptide)
# chain: GHRPVYSEDEQ
# B4: CLCA1_Y661_YF (peptide)
# chain: GVFSRYFTTFD
# B5: CNGA3_Y169 (peptide)
# chain: SSNLYYRWLTA
# B6: CNGB3_Y200_E199K (peptide)
# chain: MPLTKYLKRIK
# B7: CLCA1_Y661_Y661H (peptide)
# chain: GVYSRHFTTYD
# B8: CNGA3_Y168_P163L_YF (peptide)
# chain: LSSNLYFRWLT
# B9: CNGA2_Y395_R399Q (peptide)
# chain: DAVKHYMQFQK
# B10: CNGA3_Y168_W171C_YF (peptide)
# chain: PSSNLYFRCLT
# B11: CNOT3_Y746_R750Q (peptide)
# chain: TFEYRYLEDQD
# B12: CHST8_Y251 (peptide)
# chain: HRLSTYTKMLF
# B13: CKAP5_Y1860 (peptide)
# chain: EYKKKYSDADI
# B14: CNNM3_Y456_Y456C (peptide)
# chain: DESEDCRDTVV
# B15: CKB_Y174 (peptide)
# chain: LAGRYYALKSM
# B16: CLCA1_Y665_YF (peptide)
# chain: RFFTTYDTNGR
# B17: CKB_Y173 (peptide)
# chain: DLAGRYYALKS
# B18: CLCN4_Y548_G544R (peptide)
# chain: TRGLEYIVPLM
# B19: CLDN7_Y195 (peptide)
# chain: ESKAGYRVPRS
# B20: CNOT3_Y746_YF (peptide)
# chain: TFEFRYLEDRD
# B21: CHST6_Y362_Y358D (peptide)
# chain: GDRPVYSEDEQ
# B22: CNGB3_Y200 (peptide)
# chain: MPLTEYLKRIK
# B23: CNGA3_Y168_YF (peptide)
# chain: PSSNLYFRWLT
# B24: CLIP2_Y972_R977P (peptide)
# chain: SDQRRYSLIDP
# B25: CKB_Y174_K177R_YF (peptide)
# chain: LAGRFYALRSM
# B26: CNGA3_Y169_YF (peptide)
# chain: SSNLFYRWLTA
# B27: CLIC5_Y111 (peptide)
# chain: SMEGLYSSTQD
# B28: CKAP5_Y1860_K1857Q (peptide)
# chain: EYQKKYSDADI
# B29: CLDN14_Y233 (peptide)
# chain: ATHSGYRLNDY
# B30: CLRN1_Y171_I168N_YF (peptide)
# chain: EKNANYKEGTF
# B31: CLK1_Y56 (peptide)
# chain: MCDSHYLESRS
# B32: CKB_Y173_K177R (peptide)
# chain: DLAGRYYALRS
# B33: CKAP5_Y1860_YF (peptide)
# chain: EFKKKYSDADI
# B34: CHST8_Y251_R247H (peptide)
# chain: HHLSTYTKMLF
# B35: CLCNKB_Y138 (peptide)
# chain: VVLEDYLDIKN
# B36: CNGA3_Y168 (peptide)
# chain: PSSNLYYRWLT
# B37: CLOCK_Y378_E380K (peptide)
# chain: HTVVSYAKVRA
# Biological target: SHP2 C-SH2 domain E139D
# Experiment: enrichment score (SH2-bound / input frequency) (ratio); bacterial display of known human phosphotyrosine sites (pTyr-Var adds point mutants) read by sequencing; higher = stronger binding; tyrosines were phosphorylated by kinases first
# Conditions: peptide library: pTyr-Var
# 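Also: displayed peptides selected on beads carrying the immobilized SH2 domain, with library peptides lacking any tyrosine serving as negative controls.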
row,Binder,enrichment score
1,B1,inactive: 0.816
2,B2,inactive: 2.33
3,B3,inactive: 0.632
4,B4,inactive: 0.733
5,B5,inactive: 0.721
6,B6,inactive: 0.816
7,B7,inactive: 0.915
8,B8,inactive: 1.84
9,B9,inactive: 0.881
10,B10,inactive: 0.605
11,B11,inactive: 0.68
12,B12,active: 3.21
13,B13,inactive: 0.545
14,B14,inactive: 0.455
15,B15,inactive: 1.86
16,B16,inactive: 1.14
17,B17,inactive: 0.788
18,B18,inactive: 1.14
19,B19,inactive: 0.616

row,Binder,enrichment score
1,B20,inactive: 1.11
2,B21,inactive: 0.616
3,B22,inactive: 1.03
4,B23,inactive: 0.751
5,B24,inactive: 0.822
6,B25,inactive: 2.21
7,B26,inactive: 0.616
8,B27,inactive: 0.778
9,B28,inactive: 0.616
10,B29,inactive: 0.756
11,B30,inactive: 0.564
12,B31,inactive: 0.742
13,B32,inactive: 0.868
14,B33,inactive: 0.627
15,B34,inactive: 2.93
16,B35,inactive: 0.633
17,B36,inactive: 1.36
18,B37,inactive: 1.72

# Biological target: SHP2 C-SH2 domain wild-type
# Experiment: as above
# Conditions: peptide library: pTyr-Var
row,Binder,enrichment score
1,B1,inactive: 0.911
2,B2,inactive: 2.73
3,B3,inactive: 0.632
4,B4,inactive: 0.733
5,B5,inactive: 0.73
6,B6,inactive: 0.669
7,B7,inactive: 0.687
8,B8,inactive: 2.56
9,B9,inactive: 0.662
10,B10,inactive: 0.579
11,B11,inactive: 0.597
12,B12,active: 3.24
13,B13,inactive: 0.562
14,B14,inactive: 0.351
15,B15,inactive: 1.44
16,B16,inactive: 0.855
17,B17,inactive: 0.804
18,B18,inactive: 1.13
19,B19,inactive: 0.629

row,Binder,enrichment score
1,B20,inactive: 0.942
2,B21,inactive: 0.375
3,B22,inactive: 0.762
4,B23,inactive: 0.69
5,B24,inactive: 1.54
6,B25,inactive: 2.45
7,B26,inactive: 0.73
8,B27,inactive: 1.02
9,B28,inactive: 0.538
10,B29,inactive: 0.824
11,B30,inactive: 0.513
12,B31,inactive: 0.745
13,B32,inactive: 0.881
14,B33,inactive: 0.538
15,B34,active: 3.85
16,B35,inactive: 0.769
17,B36,inactive: 0.878
18,B37,active: 3.38

# Biological target: SHP2 N-SH2 domain L43F
# Experiment: as above
# Conditions: peptide library: pTyr-Var
row,Binder,enrichment score
1,B1,inactive: 0.824
2,B2,inactive: 2.63
3,B3,inactive: 0.679
4,B4,inactive: 0.65
5,B5,inactive: 0.514
6,B6,inactive: 0.621
7,B7,inactive: 0.615
8,B8,inactive: 1.74
9,B9,inactive: 0.767
10,B10,inactive: 0.534
11,B11,inactive: 0.854
12,B12,active: 3.35
13,B13,inactive: 0.654
14,B14,inactive: 0.422
15,B15,inactive: 1.72
16,B16,inactive: 1.19
17,B17,inactive: 1.08
18,B18,active: 3.8
19,B19,inactive: 0.728

row,Binder,enrichment score
1,B20,inactive: 1.01
2,B21,inactive: 0.349
3,B22,inactive: 0.796
4,B23,inactive: 0.74
5,B24,inactive: 0.845
6,B25,inactive: 1.91
7,B26,inactive: 0.669
8,B27,inactive: 1.02
9,B28,inactive: 0.53
10,B29,inactive: 0.691
11,B30,inactive: 0.578
12,B31,inactive: 0.91
13,B32,inactive: 0.688
14,B33,inactive: 0.537
15,B34,active: 3.69
16,B35,inactive: 0.574
17,B36,inactive: 0.947
18,B37,inactive: 1.77

# Biological target: SHP2 N-SH2 domain T42A
# Experiment: as above
# Conditions: peptide library: pTyr-Var
row,Binder,enrichment score
1,B1,inactive: 0.625
2,B2,inactive: 2.21
3,B3,inactive: 0.606
4,B4,inactive: 0.829
5,B5,inactive: 0.574
6,B6,inactive: 0.715
7,B7,inactive: 0.763
8,B8,inactive: 2.07
9,B9,inactive: 0.844
10,B10,inactive: 0.537
11,B11,inactive: 0.714
12,B12,active: 5.06
13,B13,inactive: 0.501
14,B14,inactive: 0.291
15,B15,inactive: 1.29
16,B16,inactive: 0.929
17,B17,inactive: 0.666
18,B18,active: 4.35
19,B19,inactive: 0.456

row,Binder,enrichment score
1,B20,inactive: 1.2
2,B21,inactive: 0.493
3,B22,inactive: 0.619
4,B23,inactive: 0.873
5,B24,inactive: 1.27
6,B25,inactive: 2.04
7,B26,inactive: 0.572
8,B27,inactive: 0.673
9,B28,inactive: 0.368
10,B29,inactive: 0.639
11,B30,inactive: 0.484
12,B31,inactive: 0.648
13,B32,inactive: 0.554
14,B33,inactive: 0.427
15,B34,active: 8.43
16,B35,inactive: 0.532
17,B36,inactive: 1.17
18,B37,active: 3.62

# Biological target: SHP2 N-SH2 domain T52S
# Experiment: as above
# Conditions: peptide library: pTyr-Var
row,Binder,enrichment score
1,B1,inactive: 0.796
2,B2,inactive: 2.59
3,B3,inactive: 0.645
4,B4,inactive: 0.654
5,B5,inactive: 0.66
6,B6,inactive: 0.705
7,B7,inactive: 0.758
8,B8,inactive: 1.64
9,B9,inactive: 0.64
10,B10,inactive: 0.426
11,B11,inactive: 0.559
12,B12,active: 3.66
13,B13,inactive: 0.645
14,B14,inactive: 0.383
15,B15,inactive: 1.63
16,B16,inactive: 1.07
17,B17,inactive: 0.961
18,B18,active: 3.98
19,B19,inactive: 0.554

row,Binder,enrichment score
1,B20,inactive: 1.24
2,B21,inactive: 0.398
3,B22,inactive: 0.843
4,B23,inactive: 0.756
5,B24,inactive: 0.752
6,B25,inactive: 2.24
7,B26,inactive: 0.801
8,B27,inactive: 1.14
9,B28,inactive: 0.577
10,B29,inactive: 0.744
11,B30,inactive: 0.559
12,B31,inactive: 0.617
13,B32,inactive: 0.912
14,B33,inactive: 0.482
15,B34,active: 4.93
16,B35,inactive: 0.714
17,B36,inactive: 1.35
18,B37,inactive: 1.4

# Biological target: SHP2 N-SH2 domain wild-type
# Experiment: as above
# Conditions: peptide library: pTyr-Var
row,Binder,enrichment score
1,B1,inactive: 0.909
2,B2,active: 3.21
3,B3,inactive: 0.828
4,B4,inactive: 0.624
5,B5,inactive: 0.53
6,B6,inactive: 0.777
7,B7,inactive: 0.8
8,B8,inactive: 2.25
9,B9,inactive: 0.726
10,B10,inactive: 0.799
11,B11,inactive: 0.551
12,B12,active: 3.32
13,B13,inactive: 0.751
14,B14,inactive: 0.36
15,B15,inactive: 1.26
16,B16,inactive: 1.17
17,B17,inactive: 0.732
18,B18,inactive: 1.41
19,B19,inactive: 0.603

row,Binder,enrichment score
1,B20,inactive: 1.09
2,B21,inactive: 0.601
3,B22,inactive: 0.905
4,B23,inactive: 0.874
5,B24,inactive: 0.862
6,B25,inactive: 1.7
7,B26,inactive: 0.773
8,B27,inactive: 0.913
9,B28,inactive: 0.888
10,B29,inactive: 0.724
11,B30,inactive: 0.604
12,B31,inactive: 0.69
13,B32,inactive: 0.81
14,B33,inactive: 0.54
15,B34,inactive: 2.56
16,B35,inactive: 0.652
17,B36,inactive: 1.07
18,B37,inactive: 1.14
